According to PMC12820563, “FoxP3 forms a head-to-head dimer in vivo and stabilizes its multimerization on adjacent microsatellites”:
This is one part of the list.

target: T1, MBP-FoxP1dN (Mus musculus, UniProt P58462 326-579); test: PD-seq (MBP pull-down with sequencing); 20 mM Tris-HCl pH 7.5, 100 mM NaCl, 1.5 mM MgCl2, 0.4 uM protein, 0.1 uM dsDNA library, 30 min, room temperature, amylose pull-down; high values mean tight binding; details: protein: recombinant; tags: His6-MBP; chain copies: 2; dsDNA, one strand shown
T1 sequence: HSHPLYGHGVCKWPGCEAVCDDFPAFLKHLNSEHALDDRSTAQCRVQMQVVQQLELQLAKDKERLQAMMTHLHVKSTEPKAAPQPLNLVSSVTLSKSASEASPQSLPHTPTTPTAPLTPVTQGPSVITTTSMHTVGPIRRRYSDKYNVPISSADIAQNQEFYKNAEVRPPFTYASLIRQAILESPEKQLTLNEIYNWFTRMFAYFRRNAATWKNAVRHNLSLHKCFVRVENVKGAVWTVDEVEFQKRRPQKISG
In short: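 Protein and DNA were mixed at 0.4 µM and 0.1 µM and held for 30 min at room temperature in Tris pH 7.5 buffer with NaCl and MgCl2; the protein was a His6-MBP-tagged, N-terminally truncated mouse FoxP3 or FoxP1 fragment from E. coli, and the DNA a Klenow-filled double-stranded degenerate library. Amylose resin captured the complexes, which were washed three times. Binding is read as reads-per-million enrichment of pull-down versus input after Illumina sequencing, with replicates pooled.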

In order of rising binding signal:
1. GATGATTGTTCTCCCAGCTGATGAATTCGGGAGGTCGAGTAAACAAATTTTCCTAATCTTTCTGTTCAAGCGCCATCTAC  0.695 RPM ratio (pull-down/input)
2. GATGATTGTTCTCCCAGCTGATGAATTTCAGACTTCGAGTAAACAAATTTTCCTAATCTTTCTGTTCAAGCGCCATCTAC  0.745 RPM ratio (pull-down/input)
3. GATGATTGTTCTCCCAGCTGATGAATTCCAGTGCTCGAGTAAACAAATTTTCCTAATCTTTCTGTTCAAGCGCCATCTAC  0.775 RPM ratio (pull-down/input)
4. GATGATTGTTCTCCCAGCTGATGAATTCCACCGTTCGAGTAAACAAATTTTCCTAATCTTTCTGTTCAAGCGCCATCTAC  0.784 RPM ratio (pull-down/input)
5. GATGATTGTTCTCCCAGCTGATGAATTCCCGCACTCGAGTAAACAAATTTTCCTAATCTTTCTGTTCAAGCGCCATCTAC  0.813 RPM ratio (pull-down/input)
6. GATGATTGTTCTCCCAGCTGATGAATTGGGGGCTTCGAGTAAACAAATTTTCCTAATCTTTCTGTTCAAGCGCCATCTAC  0.816 RPM ratio (pull-down/input)
7. GATGATTGTTCTCCCAGCTGATGAATTCCGACTCTCGAGTAAACAAATTTTCCTAATCTTTCTGTTCAAGCGCCATCTAC  0.843 RPM ratio (pull-down/input)
8. GATGATTGTTCTCCCAGCTGATGAATTAGCGAGTTCGAGTAAACAAATTTTCCTAATCTTTCTGTTCAAGCGCCATCTAC  0.871 RPM ratio (pull-down/input)
9. GATGATTGTTCTCCCAGCTGATGAATTTTCCTGTTCGAGTAAACAAATTTTCCTAATCTTTCTGTTCAAGCGCCATCTAC  0.877 RPM ratio (pull-down/input)
10. GATGATTGTTCTCCCAGCTGATGAATTAAGAGGTTCGAGTAAACAAATTTTCCTAATCTTTCTGTTCAAGCGCCATCTAC  0.904 RPM ratio (pull-down/input)
11. GATGATTGTTCTCCCAGCTGATGAATTAAGGCGATCGAGTAAACAAATTTTCCTAATCTTTCTGTTCAAGCGCCATCTAC  0.912 RPM ratio (pull-down/input)
12. GATGATTGTTCTCCCAGCTGATGAATTAAATCGCTCGAGTAAACAAATTTTCCTAATCTTTCTGTTCAAGCGCCATCTAC  0.914 RPM ratio (pull-down/input)
13. GATGATTGTTCTCCCAGCTGATGAATTCAGGCGTTCGAGTAAACAAATTTTCCTAATCTTTCTGTTCAAGCGCCATCTAC  0.924 RPM ratio (pull-down/input)
14. GATGATTGTTCTCCCAGCTGATGAATTTCGCTATTCGAGTAAACAAATTTTCCTAATCTTTCTGTTCAAGCGCCATCTAC  0.945 RPM ratio (pull-down/input)
15. GATGATTGTTCTCCCAGCTGATGAATTAAAGCTATCGAGTAAACAAATTTTCCTAATCTTTCTGTTCAAGCGCCATCTAC  0.951 RPM ratio (pull-down/input)
16. GATGATTGTTCTCCCAGCTGATGAATTGAGGGCATCGAGTAAACAAATTTTCCTAATCTTTCTGTTCAAGCGCCATCTAC  0.951 RPM ratio (pull-down/input)
17. GATGATTGTTCTCCCAGCTGATGAATTAAGCGCCTCGAGTAAACAAATTTTCCTAATCTTTCTGTTCAAGCGCCATCTAC  0.975 RPM ratio (pull-down/input)
18. GATGATTGTTCTCCCAGCTGATGAATTTTACCATTCGAGTAAACAAATTTTCCTAATCTTTCTGTTCAAGCGCCATCTAC  0.993 RPM ratio (pull-down/input)
19. GATGATTGTTCTCCCAGCTGATGAATTACTGAGTTCGAGTAAACAAATTTTCCTAATCTTTCTGTTCAAGCGCCATCTAC  0.998 RPM ratio (pull-down/input)
20. GATGATTGTTCTCCCAGCTGATGAATTACTTCGCTCGAGTAAACAAATTTTCCTAATCTTTCTGTTCAAGCGCCATCTAC  1.01 RPM ratio (pull-down/input)
21. GATGATTGTTCTCCCAGCTGATGAATTAGACATTTCGAGTAAACAAATTTTCCTAATCTTTCTGTTCAAGCGCCATCTAC  1.02 RPM ratio (pull-down/input)
22. GATGATTGTTCTCCCAGCTGATGAATTGATGGAATCGAGTAAACAAATTTTCCTAATCTTTCTGTTCAAGCGCCATCTAC  1.02 RPM ratio (pull-down/input)
23. GATGATTGTTCTCCCAGCTGATGAATTAATATACTCGAGTAAACAAATTTTCCTAATCTTTCTGTTCAAGCGCCATCTAC  1.04 RPM ratio (pull-down/input)
24. GATGATTGTTCTCCCAGCTGATGAATTACGGATTTCGAGTAAACAAATTTTCCTAATCTTTCTGTTCAAGCGCCATCTAC  1.08 RPM ratio (pull-down/input)
25. GATGATTGTTCTCCCAGCTGATGAATTATCGTGTTCGAGTAAACAAATTTTCCTAATCTTTCTGTTCAAGCGCCATCTAC  1.08 RPM ratio (pull-down/input)
26. GATGATTGTTCTCCCAGCTGATGAATTGCAGCACTCGAGTAAACAAATTTTCCTAATCTTTCTGTTCAAGCGCCATCTAC  1.11 RPM ratio (pull-down/input)
27. GATGATTGTTCTCCCAGCTGATGAATTGTATTACTCGAGTAAACAAATTTTCCTAATCTTTCTGTTCAAGCGCCATCTAC  1.24 RPM ratio (pull-down/input)
28. GATGATTGTTCTCCCAGCTGATGAATTGCATTGATCGAGTAAACAAATTTTCCTAATCTTTCTGTTCAAGCGCCATCTAC  1.25 RPM ratio (pull-down/input)
29. GATGATTGTTCTCCCAGCTGATGAATTTGTAATGTCGAGTAAACAAATTTTCCTAATCTTTCTGTTCAAGCGCCATCTAC  1.26 RPM ratio (pull-down/input)
30. GATGATTGTTCTCCCAGCTGATGAATTAGTTTACTCGAGTAAACAAATTTTCCTAATCTTTCTGTTCAAGCGCCATCTAC  1.5 RPM ratio (pull-down/input)
31. GATGATTGTTCTCCCAGCTGATGAATTTATATTGTCGAGTAAACAAATTTTCCTAATCTTTCTGTTCAAGCGCCATCTAC  2.36 RPM ratio (pull-down/input)
